The record followed here is ChEMBL document CHEMBL4888484, “Replenishing the malaria drug discovery pipeline: Screening and hit evaluation of the MMV Hit Generation Library 1 (HGL1) against asexual blood stage Plasmodium falciparum ,using a nano luciferase reporter read-out” (2022).

In all, about 150,000 compounds went through this assay and about 540 (0.36%) showed an effect of 50% or more. This is one part of the list.

This test concerns Plasmodium falciparum. Put plainly: Primary screen in NF54 nanoGlo assay, in single point, at 2uM, 72h; a lower Z score goes with more inhibition. Type of test: functional, Erythrocyte. The conditions noted are these: timepoint 72 hour.
On to `COc1ccc([C@H]2C[C@@H](O)[C@@H](O)[C@@H]2NCc2cn(C)c3ccccc23)cc1`, for which the “% Inhibition” value is -8% and the Z score was 1.22.
`CC[C@H](NC1CCN(c2ccc(C)cc2)CC1)c1cccnc1`: the “% Inhibition” value was -6% and the Z score was 0.89.
For `O=C(NCc1cc(F)cc(F)c1)c1cnn2c(-c3ccc4c(c3)OCO4)ccnc12`, the “% Inhibition” value is on record as 28% and the Z score is -3.22.
As to `CCNc1ncc(C(=O)NCCNC(=O)OC)cc1Cl`, the “% Inhibition” value was -15% and the Z score stood at 1.74.
Take `COc1cccc(N2CCN(C(=O)[C@H]3CCCN(c4nc5ncccc5n5cccc45)C3)CC2)c1`: the “% Inhibition” value is listed as -9% and the Z score is on record as 1.03.
Take `CN(Cc1nc(-c2ccccn2)no1)Cc1c(F)cccc1Cl`: the “% Inhibition” value was -16% and the Z score came out at 1.99.
As for `O=C(Nc1ncc(Cc2ccccc2)s1)[C@@H]1COCCN1C1CCCC1`, the “% Inhibition” value is -3% and the Z score came out at 0.39.
Turning to `COc1ccc(C(=O)c2oc3ccccc3c2NC(=O)CCc2ccccc2)cc1Cl`, the “% Inhibition” value is -4% and the Z score worked out at 0.44.
On the same counts, the results for `CCN1C[C@H](CN(C)CC(=O)NCc2ccco2)Oc2ccccc21` are -13% and 1.91.
As for `CCCOc1ccc(CNC(=O)N2CC[C@H](c3cnn(C)c3)C2)c(C)c1`, the “% Inhibition” value is recorded as 2% and the Z score is recorded as -0.35.
On the same counts, the results for `O=C(NCc1cccnc1)N[C@H]1COc2c1ccc(Cl)c2Cl` are 33% and -3.69.
`CCn1cc(-c2nncn2-c2cccc(C(C)=O)c2)cn1`: the “% Inhibition” value came out at 10% and the Z score is on record as -1.84.
Take `CCn1cnnc1[C@H]1CCCN(c2ccc(C(F)(F)F)c(C#N)c2)C1`: the “% Inhibition” value is -16% and the Z score is 1.67.
On to `Cn1cc(C2=CCCN(C(=O)c3nnc(C(C)(C)C)o3)C2)cn1`, for which the “% Inhibition” value is reported as -11% and the Z score is on record as 2.13.
Turning to `O=C(N[C@@H](Cc1ccccc1)C(=O)O)c1occc1Br`, the “% Inhibition” value was -6% and the Z score is given as 0.85.
Turning to `COCCOc1ccc(Br)cc1C(N)=O`, the “% Inhibition” value is on record as -6% and the Z score is recorded as 0.65.
Regarding `COc1nsc(CNC[C@H]2CN(C)CCO2)c1Cl`, the “% Inhibition” value was 22% and the Z score is -2.79.
In the case of `CC(NC(=O)C1CN(C)CCO1)c1cnn(Cc2ccccc2)c1` (centres undefined), the “% Inhibition” value was 30% and the Z score is recorded as -3.99.
Take `CN1C[C@H](NC(=O)c2cc3ccc(Cl)cc3n2C)C[C@H]1CO`: the “% Inhibition” value is listed as -5% and the Z score was determined as 0.67.
Regarding `O=C(c1ccco1)N1Cc2ccccc2O[C@H](c2ccccc2)C1`, the “% Inhibition” value came to 8% and the Z score was -0.73.
On the same counts, the results for `CC1=C[C@@H](CNC(=O)Cn2cnnn2)[C@H](C(C)C)C[C@H]1Cc1nc2ccccc2[nH]1` are -8% and 1.24.
`Cc1noc([C@]2(F)CCCN(S(=O)(=O)c3cc(F)ccc3C)C2)n1`: the “% Inhibition” value came out at 9% and the Z score is listed as -1.34.
On the same counts, the results for `CN(C(=O)c1ccco1)[C@@H](Cc1ccccc1Cl)C1CCN(Cc2cnn(C)c2)CC1` are -11% and 1.56.
On the same counts, the results for `O=c1[nH]c2scc(-c3ccccc3)c2c(=O)n1-c1ccccc1F` are -10% and 1.78.
For the molecule `COc1ccc(OC2CCN(C(C)=O)CC2)c(C(=O)N2CCCC[C@@H]2CCO)c1`, the “% Inhibition” value is listed as -7% and the Z score worked out at 1.04.
With `FC(F)(F)c1n[nH]c(CNc2cncc(-c3cccs3)n2)n1`, the “% Inhibition” value is listed as -6% and the Z score was found to be 1.14.
`CC(c1ccccc1F)N1CCCC(NC(=O)c2c(C3CCC3)cnn2C)C1=O` (centres undefined): the “% Inhibition” value is 24% and the Z score is listed as -3.06.
In the case of `NC(=O)c1sccc1-c1cccc(C(=O)N[C@H]2CC[C@H](O)CC2)c1`, the “% Inhibition” value is given as -1% and the Z score turned out to be 0.26.
For the molecule `Cc1csc2c(N3C[C@@H](C(F)(F)F)[C@H](C(=O)O)C3)ncnc12`, the “% Inhibition” value is recorded as -8% and the Z score amounted to 0.76.
In the case of `c1ccc(-n2ncnc2[C@@H]2COCCN2CCc2ccns2)cc1`, the “% Inhibition” value is 6% and the Z score is listed as -1.07.
Take `CC(C)c1noc(CN2CCC(N3CCC[C@H](C(=O)NC4CC4)C3)CC2)n1`: the “% Inhibition” value is -6% and the Z score is given as 0.97.
Consider `c1c([C@H]2CCOC2)nnn1Cc1n[nH]c2c1CCCCC2`, for which the “% Inhibition” value is recorded as -11% and the Z score is on record as 1.91.
On the same counts, the results for `CCS(=O)(=O)c1ccccc1C(=O)N1CCC(C(=O)c2ccc3c(c2)NC(=O)CO3)CC1` are -14% and 1.76.
For `O=C(Nc1ccc(Oc2cccc3[nH]ccc23)nc1)c1ccccc1`, the “% Inhibition” value is reported as -13% and the Z score is 1.48.
`COc1cccc(CNC(=O)[C@H]2CC(=O)N(c3ccc4oc(C)nc4c3)C2)c1`: the “% Inhibition” value was -3% and the Z score was found to be 0.6.
Regarding `Cc1ccc(CN(CCN2CCCC2)Cc2ccc(C)o2)o1`, the “% Inhibition” value is on record as 32% and the Z score was -0.37.
Take `CC(C)(C#N)c1ccccc1CN1CCn2c(n[nH]c2=O)C1`: the “% Inhibition” value is reported as -10% and the Z score was determined as 1.32.
On to `CCC(CC)Nc1cccc(NC(=O)CO)c1`, for which the “% Inhibition” value was found to be 3% and the Z score is reported as -0.47.
Consider `O=C(N[C@H]1CC(=O)N(CC(F)(F)F)C1)c1ncc2ccccc2c1O`, for which the “% Inhibition” value was -7% and the Z score was found to be 1.29.
As to `O=C(NCCN1CCCOCC1)NC1CCC(Cc2ccccc2)C1` (centres undefined), the “% Inhibition” value was 1% and the Z score is recorded as -0.16.
As for `CCn1nc(CNC[C@H](C)O)c(-c2ccccc2)n1`, the “% Inhibition” value came to 45% and the Z score is -5.11.
As for `O=S(=O)(NC1=NCCC1)c1ccc(NS(=O)(=O)c2cccc(C(F)(F)F)c2)cc1`, the “% Inhibition” value came to 6% and the Z score was -0.95.

A word on the % Inhibition: it is the drop in the measured response relative to a control, in per cent.
